Measurements from publication PMC9911399, “Two distinct binding modes provide the RNA-binding protein RbFox with extraordinary sequence specificity”.
Numbering of substitutions follows the chain as printed; changes in the protein carry UniProt numbers. The list shows a part of the results.

T1: RBFOX1 RRM RbFoxmut (Fox-RRM*) (Homo sapiens, UniProt Q9NWB1 109-208, R118D;E147R;N151S;E152T)
T1 sequence: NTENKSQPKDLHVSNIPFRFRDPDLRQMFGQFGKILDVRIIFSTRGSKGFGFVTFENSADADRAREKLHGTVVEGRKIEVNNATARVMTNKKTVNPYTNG

B1: GUGGAGC (DNA:RNA)
RNA: GGGAGACCGGAAUUCAGAUUGUCCGUGGAGCUUAAAUCCCGUCGUAGCCACCA
DNA 1: CAATCTGAATTCCGGTCTCCC
DNA 2: TGGTGGCTACGACGGGATT
B2: GUAGGGC (DNA:RNA)
RNA: B1 RNA with G27A, A29G
DNA 1: CAATCTGAATTCCGGTCTCCC
DNA 2: TGGTGGCTACGACGGGATT
B3: CACUUUA (DNA:RNA)
RNA: GGGAGACCGGAAUUCAGAUUGUCCCACUUUAUUAAAUCCCGUCGUAGCCACCA
DNA 1: CAATCTGAATTCCGGTCTCCC
DNA 2: TGGTGGCTACGACGGGATT
B4: CGCUGAU (DNA:RNA)
RNA: B3 RNA with A26G, U29G, U30A, A31U
DNA 1: CAATCTGAATTCCGGTCTCCC
DNA 2: TGGTGGCTACGACGGGATT
B5: UACGAGG (DNA:RNA)
RNA: B1 RNA with G25U, U26A, G27C, C31G
DNA 1: CAATCTGAATTCCGGTCTCCC
DNA 2: TGGTGGCTACGACGGGATT
B6: GCCUUAG (DNA:RNA)
RNA: B3 RNA with C25G, A26C, U30A, A31G
DNA 1: CAATCTGAATTCCGGTCTCCC
DNA 2: TGGTGGCTACGACGGGATT
B7: CUUCCGC (DNA:RNA)
RNA: B1 RNA with G25C, G27U, G28C, A29C
DNA 1: CAATCTGAATTCCGGTCTCCC
DNA 2: TGGTGGCTACGACGGGATT
B8: GAAGACG (DNA:RNA)
RNA: B1 RNA with U26A, G27A, G30C, C31G
DNA 1: CAATCTGAATTCCGGTCTCCC
DNA 2: TGGTGGCTACGACGGGATT
B9: GACGGAG (DNA:RNA)
RNA: B3 RNA with C25G, U28G, U29G, U30A, A31G
DNA 1: CAATCTGAATTCCGGTCTCCC
DNA 2: TGGTGGCTACGACGGGATT
B10: GACUGGC (DNA:RNA)
RNA: B3 RNA with C25G, U29G, U30G, A31C
DNA 1: CAATCTGAATTCCGGTCTCCC
DNA 2: TGGTGGCTACGACGGGATT
B11: UUCUCCA (DNA:RNA)
RNA: B3 RNA with C25U, A26U, U29C, U30C
DNA 1: CAATCTGAATTCCGGTCTCCC
DNA 2: TGGTGGCTACGACGGGATT
B12: UUUAAUA (DNA:RNA)
RNA: B3 RNA with C25U, A26U, C27U, U28A, U29A
DNA 1: CAATCTGAATTCCGGTCTCCC
DNA 2: TGGTGGCTACGACGGGATT
B13: CAGUACC (DNA:RNA)
RNA: B3 RNA with C27G, U29A, U30C, A31C
DNA 1: CAATCTGAATTCCGGTCTCCC
DNA 2: TGGTGGCTACGACGGGATT
B14: CGCUUAU (DNA:RNA)
RNA: B3 RNA with A26G, U30A, A31U
DNA 1: CAATCTGAATTCCGGTCTCCC
DNA 2: TGGTGGCTACGACGGGATT
B15: GAAGUAA (DNA:RNA)
RNA: B3 RNA with C25G, C27A, U28G, U30A
DNA 1: CAATCTGAATTCCGGTCTCCC
DNA 2: TGGTGGCTACGACGGGATT
B16: AGCACCC (DNA:RNA)
RNA: B3 RNA with C25A, A26G, U28A, U29C, U30C, A31C
DNA 1: CAATCTGAATTCCGGTCTCCC
DNA 2: TGGTGGCTACGACGGGATT
B17: CCCACCG (DNA:RNA)
RNA: B3 RNA with A26C, U28A, U29C, U30C, A31G
DNA 1: CAATCTGAATTCCGGTCTCCC
DNA 2: TGGTGGCTACGACGGGATT
B18: CGCCAUA (DNA:RNA)
RNA: B3 RNA with A26G, U28C, U29A
DNA 1: CAATCTGAATTCCGGTCTCCC
DNA 2: TGGTGGCTACGACGGGATT
B19: AUGGUUA (DNA:RNA)
RNA: B3 RNA with C25A, A26U, C27G, U28G
DNA 1: CAATCTGAATTCCGGTCTCCC
DNA 2: TGGTGGCTACGACGGGATT
B20: AGCACUG (DNA:RNA)
RNA: B3 RNA with C25A, A26G, U28A, U29C, A31G
DNA 1: CAATCTGAATTCCGGTCTCCC
DNA 2: TGGTGGCTACGACGGGATT
B21: CUUGGCC (DNA:RNA)
RNA: B1 RNA with G25C, G27U, A29G, G30C
DNA 1: CAATCTGAATTCCGGTCTCCC
DNA 2: TGGTGGCTACGACGGGATT
B22: UGAUGGA (DNA:RNA)
RNA: B3 RNA with C25U, A26G, C27A, U29G, U30G
DNA 1: CAATCTGAATTCCGGTCTCCC
DNA 2: TGGTGGCTACGACGGGATT
B23: UUUCACC (DNA:RNA)
RNA: B1 RNA with G25U, G27U, G28C, G30C
DNA 1: CAATCTGAATTCCGGTCTCCC
DNA 2: TGGTGGCTACGACGGGATT
B24: AAACUUU (DNA:RNA)
RNA: B3 RNA with C25A, C27A, U28C, A31U
DNA 1: CAATCTGAATTCCGGTCTCCC
DNA 2: TGGTGGCTACGACGGGATT
B25: GCCCGGG (DNA:RNA)
RNA: B1 RNA with U26C, G27C, G28C, A29G, C31G
DNA 1: CAATCTGAATTCCGGTCTCCC
DNA 2: TGGTGGCTACGACGGGATT
B26: UUUGGAA (DNA:RNA)
RNA: B1 RNA with G25U, G27U, A29G, G30A, C31A
DNA 1: CAATCTGAATTCCGGTCTCCC
DNA 2: TGGTGGCTACGACGGGATT
B27: AGUCAUA (DNA:RNA)
RNA: B3 RNA with C25A, A26G, C27U, U28C, U29A
DNA 1: CAATCTGAATTCCGGTCTCCC
DNA 2: TGGTGGCTACGACGGGATT
B28: AGAUUUA (DNA:RNA)
RNA: B3 RNA with C25A, A26G, C27A
DNA 1: CAATCTGAATTCCGGTCTCCC
DNA 2: TGGTGGCTACGACGGGATT
B29: CAUUGUC (DNA:RNA)
RNA: B3 RNA with C27U, U29G, A31C
DNA 1: CAATCTGAATTCCGGTCTCCC
DNA 2: TGGTGGCTACGACGGGATT
B30: CUAUACA (DNA:RNA)
RNA: B3 RNA with A26U, C27A, U29A, U30C
DNA 1: CAATCTGAATTCCGGTCTCCC
DNA 2: TGGTGGCTACGACGGGATT
B31: AGGCGAC (DNA:RNA)
RNA: B1 RNA with G25A, U26G, G28C, A29G, G30A
DNA 1: CAATCTGAATTCCGGTCTCCC
DNA 2: TGGTGGCTACGACGGGATT

What follows are binders tested against T1, RBFOX1 RRM RbFoxmut (Fox-RRM*) (assay: EMSA; HiTS-Eq, 1 nM pool, 10 min; buffer printed only for the single-RNA assays: 10 mM Tris pH 7.5, 150 mM NaCl, 3.4 mM EDTA, 0.001% NP-40, 30 C). Details: tags: His6 N-terminal (pET28a); label: 5' 32P.
How it was run: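 These values rest on relative association constants, computed from read-count changes of each RNA species versus the control reaction and normalised to the cognate motif. Reads came from free RNA recovered by 8% native PAGE after purified RbFox RRM (wild type or mutant) at increasing concentrations was equilibrated for 10 min in 50 µL with 1 nM of a 5′-radiolabelled pool with 7 randomized nucleotides and DNA-annealed flanks.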

Binder	binding signal
B1	0.134 KA relative to UGCAUGU
B2	0.0527 KA relative to UGCAUGU
B3	0.113 KA relative to UGCAUGU
B4	0.106 KA relative to UGCAUGU
B5	0.0882 KA relative to UGCAUGU
B6	0.126 KA relative to UGCAUGU
B7	0.0603 KA relative to UGCAUGU
B8	0.0656 KA relative to UGCAUGU
B9	0.0864 KA relative to UGCAUGU
B10	0.2 KA relative to UGCAUGU
B11	0.0808 KA relative to UGCAUGU
B12	0.115 KA relative to UGCAUGU
B13	0.107 KA relative to UGCAUGU
B14	0.11 KA relative to UGCAUGU
B15	0.113 KA relative to UGCAUGU
B16	0.0582 KA relative to UGCAUGU

Binder	binding signal
B17	0.101 KA relative to UGCAUGU
B18	0.118 KA relative to UGCAUGU
B19	0.191 KA relative to UGCAUGU
B20	0.102 KA relative to UGCAUGU
B21	0.343 KA relative to UGCAUGU
B22	0.0611 KA relative to UGCAUGU
B23	0.0683 KA relative to UGCAUGU
B24	0.0636 KA relative to UGCAUGU
B25	0.0708 KA relative to UGCAUGU
B26	0.0908 KA relative to UGCAUGU
B27	0.0919 KA relative to UGCAUGU
B28	0.121 KA relative to UGCAUGU
B29	0.277 KA relative to UGCAUGU
B30	0.0637 KA relative to UGCAUGU
B31	0.0736 KA relative to UGCAUGU
